Data on 59 compounds can be found in PubChem BioAssay AID463173 (ICCB-Longwood Screening Facility, Harvard Medical School, 2010).

The structures appear in SMILES notation. The whole screen tested about 52,000 compounds, of which about 4,300 (8.3%) were called active. No stated cut-off is given here; in the data, active means survival mostly below about 52% (no sharp cut-off); inactive means mostly above about 56%. The list shows a part of the results.

In the assay the test system is DeltatarO mutant. Put plainly: S. aureus survival, RN4220 and DeltatarO strains – OD600, teichoic acid synthesis inhibitors, primary screen (AID 463173). The settings on record: S. aureus RN4220 wild type/DeltatarO growth, OD600, 18 h, active compounds read low, screened at 18.75 µg/mL (by protocol).
For the compound `Cc1ccc(CNC(=O)c2cc3c(=O)n(Cc4cccnc4)ccc3nc2C)cc1`, the survival was inactive: 93%.

`CCOC(=O)C(C)NC(=O)c1c(C)oc2ncn(CC(C)C)c(=O)c12` (centres undefined): the survival is inactive: 84%.

On to `CCOC(=O)C1CCN(C(=O)c2ccc3c(=O)n4nc(Nc5cc(C)ccc5C)sc4nc3c2)CC1`, for which the survival is inactive: 84%.

Take `COc1ccc(OC)c(CCNC(=O)c2csc3c2CCCCC3)c1`: the survival is active: 44%.

With `O=C(Cn1c(=O)n(-c2ccccc2Cl)c(=O)c2sc3ccccc3c21)NC1CCCCC1`, the survival was inactive: 109%.

As for `N#Cc1cccc(NC(=O)C2CCN(S(=O)(=O)c3ccc4[nH]c(=O)ccc4c3)CC2)c1`, the survival is inactive: 75%.

For the compound `Cc1ccccc1-n1nc(CO)c(C(=O)NCc2cccs2)n1`, the survival is inactive: 79%.

In the case of `Cc1ccc(CN2CCN(CC(=O)Nc3ccc(C)c(C)c3)S2(=O)=O)cc1`, the survival is inactive: 88%.

Regarding `Cc1c(NC(=O)c2nc3ccccc3nc2N2CCCCC2)cccc1[N+](=O)[O-]`, the survival was inactive: 100%.

Regarding `Cc1ccccc1OC(=O)CSc1nnc(-c2ccc(F)cc2)o1`, the survival was inactive: 63%.

For `Cc1cccc2c1-c1sc(C(=O)N(C)c3cccc(C(F)(F)F)c3)cc1CO2`, the survival is inactive: 52%.

As to `Cc1csc2nc(COc3ccccc3NC(=O)c3ccc(C(C)(C)C)cc3)cc(=O)n12`, the survival was inactive: 88%.

Take `CC(=O)C1=C(c2ccc(C)c(C)c2)N(C(C)=O)n2c(nnc2-c2ccc(Cl)cc2)S1`: the survival was inactive: 124%.

In the case of `CC(=O)Nc1cc(-n2cnnn2)ccc1C`, the survival is inactive: 75%.

In the case of `CCNC(=O)c1nn(-c2ccccc2C)nc1CO`, the survival was inactive: 106%.

Turning to `CCNC(=S)N1CCC(NC(=O)c2ccccc2)CC1`, the survival is inactive: 110%.

In the case of `Cc1ccc(OCC(=O)N2CCC(C)CC2)cc1C`, the survival was inactive: 71%.

`Cc1ccc(C(=O)Nc2ccc(-c3nc4ccccc4s3)cc2C)cc1C`: the survival was inactive: 55%.

As to `COC(=O)c1ccccc1NC(=O)Nc1nnc(N2CCC(C)CC2)s1`, the survival was inactive: 90%.

Take `CCOc1cc(CNC(=O)NC2COc3ccc(OC)cc3C2)cc(OCC)c1OCC` (centres undefined): the survival was inactive: 69%.

As for `COc1ccc(N2CC(NC(=O)CCCc3ccccc3)CC2=O)cc1` (centres undefined), the survival is active: 32%.

Consider `CCOC(=O)c1cc(C)n(CC2CCC(C(=O)Nc3ccc(C)c(F)c3)CC2)c1C` (centres undefined), for which the survival is inactive: 64%.

As to `O=C(O)c1cc2n(n1)C(C(F)(F)F)CC(C1CC1)N2` (centres undefined), the survival is inactive: 91%.

`Fc1ccccc1Cn1c(-c2ccccc2)nc2ccccc21`: the survival was active: 1%.

For the compound `COCCCNC(=O)CSc1nc2c(sc3ccccc32)c(=O)n1CCCC(=O)NCCOC`, the survival was inactive: 88%.

As for `Cc1ccccc1OCc1nnc(SCc2cc(=O)c3cccc(F)c3[nH]2)n1C`, the survival is inactive: 78%.

On to `CC(=O)c1ccc(NC(=O)COCc2cc(-c3ccco3)on2)cc1`, for which the survival is inactive: 131%.

With `Cc1ccc(C)c(CSc2nc3ccncc3n2CC(=O)Nc2ccc(N(C)C)cc2)c1`, the survival is inactive: 75%.

In the case of `Cc1cccc2nc(-c3cccc(NS(=O)(=O)c4ccccc4)c3)cn12`, the survival is active: 35%.

As for `CCC(C)NC(=O)CSc1nc2c(sc3ccccc32)c(=O)n1Cc1ccccc1Cl` (centres undefined), the survival was inactive: 87%.

For `Clc1ccccc1CNc1ncnc2c1c(-c1ccccc1)cn2-c1ccccc1`, the survival is inactive: 88%.

As to `Cc1cc(C)c(NC(=O)Nc2ccc3snnc3c2)c(C)c1`, the survival is inactive: 118%.

On to `Cc1ccc(C)c(Cn2c3ccccc3c3cnn(CC(=O)NCc4ccccc4)c(=O)c32)c1`, for which the survival was inactive: 93%.

On to `Cc1ccc(NC(=O)CSc2nc(-c3ccco3)nc3cc(=O)[nH]n23)cc1C`, for which the survival is inactive: 135%.

Turning to `COc1ccc2nc(NC(=O)c3nc(S(=O)(=O)Cc4cccc(C)c4)ncc3Cl)sc2c1`, the survival is inactive: 49%.

Turning to `Cc1cc(NC(=O)C2CCN(S(=O)(=O)c3ccc4[nH]c(=O)oc4c3)CC2)ccc1Br`, the survival is inactive: 115%.

`CCC1CCCCN1CCCNC(=O)CN1C(=O)CSc2ccc(S(=O)(=O)N3CCOCC3)cc21` (centres undefined): the survival is inactive: 70%.

In the case of `CCOC(=O)Cn1nc(C)c(NC(=O)COc2ccc(Cl)cc2C)c1C`, the survival is inactive: 71%.

Take `CCOc1ccccc1NC(=O)Cn1ccn(Cc2ccc(C)cc2)c(=O)c1=O`: the survival is inactive: 78%.

As to `CCCn1c(SCC(=O)N(C(C)C)C(C)C)nnc1-c1cccnc1`, the survival was inactive: 74%.

With `Cc1ccc(-c2cc(C(=O)Oc3ccccc3)c3cc(C)ccc3n2)cc1`, the survival is inactive: 76%.

Regarding `COc1cc2c(cc1OC)CN(C(=O)CCC(=O)O)CC2`, the survival was inactive: 102%.

With `CC(c1ccccc1)n1cc(C(=O)NCC2COc3ccccc3O2)nn1` (centres undefined), the survival is inactive: 95%.

Consider `COc1ccc2c(c1)c1c(c(=O)n(-c3cccc(Cl)c3)c(=O)n1CC(=O)N1CCCC1)n2C`, for which the survival is inactive: 77%.

As to `Cc1ccc2oc3c(c(=O)c2c1)C1(C(=O)N(C)c2ccccc21)N(CCCO)C3=O` (centres undefined), the survival is active: 51%.

As to `O=C(CCS(=O)(=O)c1cccc2nsnc12)Nc1ccc(F)cc1`, the survival was inactive: 53%.

Turning to `Cc1ccc(Cl)cc1NC(=O)C(=O)NCC(c1cccnc1)N1CCc2ccccc21` (centres undefined), the survival was inactive: 51%.

On to `COc1ccc2oc(-c3ccc(C)c(NC(=O)COc4cc(C)cc(C)c4)c3)nc2c1`, for which the survival is active: 43%.

For `CCc1ccc(-n2c(=O)c3c4c(sc3n(CC(=O)c3ccc(Cl)cc3)c2=O)CCC4)cc1`, the survival was inactive: 142%.

`COc1ccc(/C=C\C(=O)NC2CC(=O)N(c3ccccc3)C2)cc1OC` (centres undefined): the survival is inactive: 130%.

Turning to `COc1cc(NC(=O)c2nc(-c3ccncc3)no2)cc(OC)c1OC`, the survival is inactive: 107%.

With `Cc1ccc(NC(=O)C(Cc2c[nH]c3ccccc23)NC(=O)OCC(C)C)cc1` (centres undefined), the survival is inactive: 56%.

With `Cc1ccc(CN(C(=O)COc2c(C)cccc2C)C2CCS(=O)(=O)C2)o1` (centres undefined), the survival was inactive: 110%.

For the compound `COC(=O)c1nc2n(n1)C(c1cc(OC)ccc1OC)C(C(=O)Nc1ccc(C)cc1C)=C(C)N2` (centres undefined), the survival was inactive: 79%.

On to `CCOC(=O)Cc1cc(=O)[nH]c(/N=C(\N)Nc2ccc3ccccc3c2)n1`, for which the survival was inactive: 98%.

`Cc1ccc(Cl)cc1N1CCN(CCNC(=O)Nc2ccccc2Cl)CC1`: the survival is inactive: 77%.

Regarding `CC(C)(C)C(=O)NCCc1csc2nc(-c3ccc(F)cc3)nn12`, the survival is inactive: 90%.

`CCS(=O)(=O)N1CCN(C2CCCCCCC2)CC1`: the survival is inactive: 67%.

As to `COc1cc2[nH]c(=O)n(CCCC(=O)N3CCN(c4cccc(C(F)(F)F)c4)CC3)c(=O)c2cc1OC`, the survival is inactive: 56%.
